According to PMC4336329 (PLoS ONE, 2015):
Among all 310,000 compounds or so, about 14,000 (4.5%) showed an effect of 50% or more. The effect is printed as a negative number. The list shows a part of the results.

Each compound was assayed against human ether-à-go-go-related gene (hERG) potassium channel (human, UniProt Q12809) (assay: primary screen, population patch clamp on CHO cells stably expressing hERG).
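Also: peak tail current of the secondary pulse compared with the same well before compound.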

Sequence of human ether-à-go-go-related gene (hERG) potassium channel (Q12809 whole entry, looked up): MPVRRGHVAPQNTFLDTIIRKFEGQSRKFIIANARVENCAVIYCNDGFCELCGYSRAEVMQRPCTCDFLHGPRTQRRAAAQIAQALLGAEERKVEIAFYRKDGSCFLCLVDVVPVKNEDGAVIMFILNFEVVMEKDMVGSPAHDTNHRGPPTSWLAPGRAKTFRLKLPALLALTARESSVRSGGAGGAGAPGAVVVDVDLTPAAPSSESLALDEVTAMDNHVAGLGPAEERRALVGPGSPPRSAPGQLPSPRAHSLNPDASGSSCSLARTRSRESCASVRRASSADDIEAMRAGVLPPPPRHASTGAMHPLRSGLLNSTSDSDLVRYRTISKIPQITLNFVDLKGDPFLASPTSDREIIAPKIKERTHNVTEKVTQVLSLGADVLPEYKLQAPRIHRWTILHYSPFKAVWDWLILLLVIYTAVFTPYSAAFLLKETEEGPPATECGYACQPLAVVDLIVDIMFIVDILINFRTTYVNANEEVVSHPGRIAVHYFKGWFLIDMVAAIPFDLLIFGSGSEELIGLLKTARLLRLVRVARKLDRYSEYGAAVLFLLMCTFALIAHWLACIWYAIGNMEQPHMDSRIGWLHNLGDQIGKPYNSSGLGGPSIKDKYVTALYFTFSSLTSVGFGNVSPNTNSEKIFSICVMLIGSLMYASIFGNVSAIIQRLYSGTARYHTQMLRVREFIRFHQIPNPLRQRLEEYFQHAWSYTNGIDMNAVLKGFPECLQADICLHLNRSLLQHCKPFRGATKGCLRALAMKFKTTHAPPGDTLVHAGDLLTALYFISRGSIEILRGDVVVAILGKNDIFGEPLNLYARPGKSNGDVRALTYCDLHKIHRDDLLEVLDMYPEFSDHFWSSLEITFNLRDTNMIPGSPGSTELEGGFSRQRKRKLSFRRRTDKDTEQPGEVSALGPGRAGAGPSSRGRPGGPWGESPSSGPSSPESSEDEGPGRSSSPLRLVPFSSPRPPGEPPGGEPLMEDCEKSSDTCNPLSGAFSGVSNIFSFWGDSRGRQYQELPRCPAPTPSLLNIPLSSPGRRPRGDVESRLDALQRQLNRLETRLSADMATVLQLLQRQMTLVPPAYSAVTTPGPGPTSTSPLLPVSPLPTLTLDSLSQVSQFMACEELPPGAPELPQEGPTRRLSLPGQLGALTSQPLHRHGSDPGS

Compound	hERG current change (%, negative = inhibition) at 10uM [%]
COC(=O)N1CN(C(=O)OC)CN(C(=O)OC)C1	8.81
COc1cc(CC(=O)OCC(=O)Nc2ncc(Cl)cc2Cl)cc(OC)c1OC	7.58
COc1ccc(NC(=O)C23CCC(C2)C(C)(C)C3=O)cc1 (stereo not drawn)	9.09
Cc1ccc[n+](-c2nc([O-])sc2/C=N/Nc2ccc([N+](=O)[O-])cc2)c1	12.2
COc1cc(/C=C(\C#N)c2nc3ccccc3[nH]2)cc(OC)c1O	-13.7
CCc1ccccc1NC(=O)CN1CCN(CC(=O)Nc2cc(C)ccc2OC)CC1	-28.4
COc1cccc(/C=C2\SC(=S)N(CCCC(=O)NC3=NCCS3)C2=O)c1	19.2
COc1ccc(-n2nc3c(c2NC(C)=O)CS(=O)(=O)C3)cc1	23.8
CC(=O)Nc1ccc(NC(=O)C(C)OC(=O)CCCN=C2NS(=O)(=O)c3ccccc32)cc1 (stereo not drawn)	8.81
COc1ccc(N(CN2C(=O)C3CC=CCC3C2=O)C(=O)c2ccco2)cc1 (stereo not drawn)	8.35
CCOC(=O)CSC1=N/C(=C\c2ccc(OC)c(OC)c2)C(=O)N1C	-69.7
O=C(O)c1cccc(NC(=S)NC(=O)c2cccc(OCc3ccccc3)c2)c1	28.7
CN(c1ncc(C(F)(F)F)cc1Cl)n1cc(C(=O)O)c2ccccc2c1=O	4.8
CN1CCN(C(=S)C(=O)NCc2ccccc2)CC1	-2.07
CC(=O)c1cccc(CN2CCCC(N3CCN(c4ccccc4F)CC3)C2)c1 (stereo not drawn)	-35.3
CC(C)N1C(=O)CC(Nc2ccc(N3CCOCC3)cc2)C1=O (stereo not drawn)	2.64
CN(C)/C=C\C(=C/C(=O)C(F)(F)F)Nc1ccccc1Oc1ccccc1	-24.4
COc1ccccc1CCC(=O)NNC(=O)c1ccncc1	7.46
O=C(NCCCN1CCOCC1)C(=O)NCC1OCCN1S(=O)(=O)c1ccc(Br)cc1 (stereo not drawn)	-25.1
Cc1cc(NC(=O)CCC(=O)N(CC(C)C)C(C(=O)NC(C)(C)C)c2ccccc2Cl)no1 (stereo not drawn)	14.8
CCOC(=O)C1CCN(C(=O)C(=O)c2cn(CC(=O)N3CCCCCC3)c3ccccc23)CC1	16.1
COc1cccc(/C=C2\SC(=S)N(NS(=O)(=O)c3ccccc3)C2=O)c1OC	-8.12
CC(C)(C)OC(=O)N1CCN(C(=O)Nc2ccc3c(c2)OCCO3)CC1	10.5
O=C(NCCCc1ccccc1)c1ccc([N+](=O)[O-])cc1Cl	-36
